Source: US20230054379A1, “COMPOSITION AND METHOD OF TREATMENT TO SIMU[…] THE […] EFFICACY OF OPIOIDS AND REDUCE THEIR ADDICTIVE POWER” (Centro de Investigacion Y Desarrollo de Medicamentos (CIDEM), priority 2020, published 2023)
Where “and” joins values, the source holds several entries; their conditions need not be identical. Equal values may be shown once.

What was measured:
[1] = Response to an acute dose of morphine in pre-treated CCI rats (electronic von Frey)
[2] = Intensity of mechanical hypernociception (electronic von Frey) in CCI or sham rats after chronic morphine or saline

Question: For CCOC(=O)C1=C(C)NC2=C(C=Nc3ccccc3N2)C1c1ccccc1[N+](=O)[O-] (stereo not drawn) [JM-20, 3-ethoxycarbonyl-2-methyl-4-(2-nitrophenyl)-4,11-dihydro-1H-pyrido [2,3-b] [1,5] benzodiazepine], which “Intensity of mechanical hypernociception (Δ of withdrawal threshold)” value (from here on “Intensity … (Δ of withdrawal threshold)”) ([1]; CCI-MOR-JM-20 group, 20 minutes after acute morphine 1 mg/kg i.p.) is on record?
Answer: 6.40±3.28 grams

Question: What about the “Intensity … (Δ of withdrawal threshold)” value ([1]; CCI-MOR-JM-20 group, 40 minutes after acute morphine 1 mg/kg i.p.) of the same compound?
Answer: 7.52±2.19 grams

Question: What about the “Intensity … (Δ of withdrawal threshold)” value ([1]; CCI-MOR-JM-20 group, time 0, prior to acute morphine) of the same compound?
Answer: 17.18±3.35 grams

Question: And the “Intensity … (Δ of withdrawal threshold)” value ([1]; CCI-SS-JM-20 group (JM-20 pre-treatment 5 days), time 0, prior to acute morphine)?
Answer: 10.68±5.89 grams

Question: And the “Intensity … (Δ of withdrawal threshold)” value ([1]; CCI-SS-JM-20 group, 20 minutes after acute morphine 1 mg/kg i.p.)?
Answer: -8.33±2.03 grams

Question: What about the “Intensity … (Δ of withdrawal threshold)” value ([1]; CCI-SS-JM-20 group, 40 minutes after acute morphine 1 mg/kg i.p.) of the same compound?
Answer: -6.11±1.90 grams

Question: What about the “Intensity … (Δ of withdrawal threshold)” value ([1]; CCI-SS-JM-20 group, 120 minutes after acute morphine 1 mg/kg i.p.) of the same compound?
Answer: 3.34±1.71 grams

Question: What about the “Intensity of mechanical hypernociception, difference (Δ) of the withdrawal threshold” value ([2]; CCI rats, morphine 10 mg/kg s/c every 12 hours for 4 days + JM-20 10 mg/kg p.o. for 5 days, day 11 post-surgery) of the same compound?
Answer: 17.18±3.35 grams

Question: What about the “Intensity of mechanical hypernociception, difference (Δ) of the withdrawal threshold” value ([2]; CCI rats, morphine 10 mg/kg s/c every 12 hours for 4 days + JM-20 10 mg/kg p.o. for 5 days, day 23 post-surgery, 12 days after discontinuation) of the same compound?
Answer: 16.40±3.8 grams and 16.40±3.82 grams

Question: For CN1CC[C@]23c4c5ccc(O)c4O[C@H]2[C@@H](O)C=C[C@H]3[C@H]1C5 [morphine, reference compound], which “Intensity … (Δ of withdrawal threshold)” value ([1]; CCI-MOR group (morphine 10 mg/kg s.c. every 12 hours for 4 days), time 0, prior to acute morphine) is on record?
Answer: 45.09±1.60 grams

Question: What about the “Intensity … (Δ of withdrawal threshold)” value ([1]; CCI-MOR group, 20 minutes after acute morphine 1 mg/kg i.p.) of the same compound?
Answer: 39.92±1.78 grams

Question: And the “Intensity … (Δ of withdrawal threshold)” value ([1]; CCI-SS group, 20 minutes after acute morphine 1 mg/kg i.p., day 11 after surgery)?
Answer: 30.13±1.55 grams

Question: What about the “Intensity of mechanical hypernociception, difference (Δ) of the withdrawal threshold” value ([2]; CCI rats, morphine 10 mg/kg s/c every 12 hours for 4 days (vehicle p.o.), day 11 post-surgery, 19 hours after last morphine) of the same compound?
Answer: 45.09±1.60 grams

Question: And the “Intensity of mechanical hypernociception, difference (Δ) of the withdrawal threshold” value ([2]; CCI rats, morphine 10 mg/kg s/c every 12 hours for 4 days (vehicle p.o.), day 11 post-surgery, 19 hours after last morphine, listed as MOR)?
Answer: 45.09 ± 1.60 grams

Question: And the “Intensity of mechanical hypernociception, difference (Δ) of the withdrawal threshold” value ([2]; CCI rats, morphine 10 mg/kg s/c every 12 hours for 4 days (vehicle p.o.), day 23 post-surgery)?
Answer: 44.82±1.39 grams and 45.18±1.5 grams

Question: What about the “Intensity of mechanical hypernociception, difference (Δ) of the withdrawal threshold” value ([2]; CCI rats, morphine 10 mg/kg s/c every 12 hours for 4 days (vehicle p.o.), day 23 post-surgery, listed as MOR) of the same compound?
Answer: 44.82 ± 1.39 grams

Question: What about the “Intensity of mechanical hypernociception, difference (Δ) of the withdrawal threshold” value ([2]; Sham CCI rats, morphine 10 mg/kg s/c every 12 hours for 4 days, day 11 post-surgery) of the same compound?
Answer: 40.49 ± 2.57 grams

Question: And the “Intensity of mechanical hypernociception, difference (Δ) of the withdrawal threshold” value ([2]; Sham CCI rats, morphine 10 mg/kg s/c every 12 hours for 4 days, day 23 post-surgery)?
Answer: 37.49 ± 2.10 grams
